Test results as given in PubChem BioAssay AID1745853 (National Center for Advancing Translational Sciences (NCATS), 2022).
The other results are listed elsewhere or left out. These are further read-outs of the screen, such as a control signal, another cell line or another target. No call is given for them.

Columns and labels:
Test in all cases: Primary Screen for Target Class Profiling of Small Molecule Inhibitors of Methyltransferases
[1] = biological target: Glycine N-methyltransferase (Homo sapiens) (UniProt Q14749); conditions: purified enzyme, MTase-Glo SAH luminescence; measured here: GNMT inhibition; at 40 µM; stronger effect = lower value
In short: (§1)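 Each enzyme was reacted with SAM and its substrate, with compounds tested once at 40 uM; SAH formed was read by MTase-Glo luminescence.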

[2] = biological target: Guanidinoacetate N-methyltransferase (Homo sapiens) (UniProt Q14353); conditions: purified enzyme, MTase-Glo SAH luminescence; measured here: GAMT inhibition; at 40 µM; stronger effect = lower value
In short: as §1

[3] = biological target: Histamine N-methyltransferase (Homo sapiens) (UniProt P50135); conditions: purified enzyme, MTase-Glo SAH luminescence; measured here: HNMT inhibition; at 40 µM; stronger effect = lower value
In short: as §1

[4] = biological target: Nicotinamide N-methyltransferase (Homo sapiens) (UniProt P40261); conditions: purified enzyme, MTase-Glo SAH luminescence; measured here: NNMT inhibition; at 40 µM; stronger effect = lower value
In short: as §1

[5] = biological target: Phenylethanolamine N-methyltransferase (Homo sapiens) (UniProt P11086); conditions: purified enzyme, MTase-Glo SAH luminescence; measured here: PNMT inhibition; at 40 µM; stronger effect = lower value
In short: as §1
% is set by controls: 0 for no effect and ±100 for the full control effect.

Structure (SMILES)	activity change, negative = inhibition [1]	activity change, negative = inhibition [2]	activity change, negative = inhibition [3]	activity change, negative = inhibition [4]	activity change, negative = inhibition [5]
O=C(CCc1nnn2c1CN(C(=O)COc1ccc(F)cc1)CC2)NCc1ccccc1	-1.65%	-0.848%	0.049%	-1.34%	3.2%
COCCc1noc(-c2ccccc2OC2CN(C(=O)Cc3c[nH]c4ccccc34)C2)n1	-6.42%	0.593%	-6.59%	1.76%	-0.096%
CCC(C)NC(=O)c1ccc2c(=O)n(CC(C)C)c3nn(CC(=O)NCc4ccc(C)cc4)c(=O)n3c2c1 (stereo not drawn)	2.25%	2.84%	5.03%	1.39%	-0.827%
CCCN1C(=O)c2c(C(=O)NCc3cccs3)ncn2CC1(C)C(=O)NCCC(C)C (stereo not drawn)	-0.476%	0%	5.04%	-0.999%	3.73%
CC(=O)N1CCC(OCCOc2ccccc2)CC1	-3.05%	-0.96%	1.97%	0.171%	16.9%
CN1C(=O)c2cc(C(=O)NCCCN3CCOCC3)nn2CC1(C)C(=O)NC1CCCCCC1 (stereo not drawn)	6.89%	2.85%	8.5%	6.32%	3.57%
COC(=O)c1cc2n(n1)CC(C)(C(=O)NC1CCCCC1)N(c1cccc(Cl)c1C)C2=O (stereo not drawn)	7.42%	1.91%	10.5%	6.7%	4.81%
CC(C)=CCC[C@](C)(O[C@@H]1O[C@H](CO[C@@H]2O[C@@H](CO)[C@H](O)[C@H]2O[C@@H]2OC[C@@H](O)[C@H](O)[C@H]2O)[C@@H](O)[C@H](O)[C@H]1O)[C@H]1CC[C@]2(C)[C@@H]1[C@H](O)CC1[C@@]3(C)CC[C@H](O[C@@H]4O[C@H](CO)[C@@H](O)[C@H](O)[C@H]4O[C@@H]4O[C@H](CO)[C@@H](O)[C@H](O)[C@H]4O)C(C)(C)C3CC[C@]12C (stereo partly drawn)	2.41%	13.5%	10.2%	-3.04%	-1.7%
COc1ccccc1NC(=O)CSc1nnc2n(Cc3ccccc3)c(=O)c3ccccc3n12	-4.9%	1.3%	1.21%	-5.09%	-2.67%
Cc1cc(C(=O)N2CCC(N3CCCC(C(=O)NCCc4ccccc4)C3)CC2)n[nH]1 (stereo not drawn)	-4.6%	-7.51%	-4.03%	-9.66%	7.91%
Nc1ncccc1CNC(=O)[C@H]1CCC[C@H](O)C1	-1.19%	-0.626%	2.16%	-2.28%	-0.445%
O=[N+]([O-])c1cn2c(n1)OC[C@@H](OCc1ccc(OC(F)(F)F)cc1)C2		-2.94%		-16.1%	-10.8%
O=C(CCn1ccc2cc(S(=O)(=O)N3CCCC3)ccc21)NCc1cccc(Br)c1	6.78%	0.46%	8.34%	9.18%	4.09%
CCOC(=O)C(C)Oc1cccc2c(=O)n(CC(=O)Nc3ccc4c(c3)OCCO4)ccc12 (stereo not drawn)	4.57%	14%	5.22%	-0.49%	10.2%
O=C(O)c1ccc(CN2C[C@@H]3OCC(=O)N(c4ccccc4)[C@@H]3C2)cc1	-3.2%	-4.96%	-0.791%	-9.58%	-8.32%
CCN1C(=O)c2cc(C(=O)N3CCC(N4CCCCC4)CC3)nn2CC1(C)C(=O)NC1CCCC1 (stereo not drawn)	9.03%	1.46%	0.118%	8.73%	7.21%
C[C@]12CCC[C@](C)(C(=O)O)C1CCC13CC(CO)C(CCC12)C3 (stereo partly drawn)	0%	4.4%	11.8%	-9.88%	1.68%
O=C(CC1C(=O)NCCN1CC(c1ccccc1)c1ccccc1)NCc1ccco1 (stereo not drawn)	-12.2%	-2.2%	-7.02%	-7.97%	0.221%
CS(=O)(=O)N1C[C@H]2CCN(C(=O)Cc3ccccc3Cl)C[C@H]21	-5.57%	-14.7%	-4.05%	-9.63%	-5%

Structure (SMILES)	activity change, negative = inhibition [1]	activity change, negative = inhibition [2]	activity change, negative = inhibition [3]	activity change, negative = inhibition [4]	activity change, negative = inhibition [5]
CCCn1c(=O)c2ccc(C(=O)NC3CCCC3)cc2n2c(=O)n(Cc3cccc(Cl)c3)nc12	2.06%	0%	5.04%	1.5%	-1.18%
Cc1ccc(CCN2C(=O)CSc3c(c4ccccc4n3C)C2C(=O)NCCC(C)C)cc1 (stereo not drawn)	3.74%	0%	1.67%	-1.26%	3.77%
O=C(NCC1CN(C(=O)Cc2cccc(Cl)c2)CC12CN(c1ccccc1)C2)C1CC1 (stereo not drawn)	-6.58%	-1.75%	-1.66%	-10.9%	-3.63%
COc1cccc(S(=O)(=O)N2CCC(OCCOCc3ccccc3)CC2)c1	-10.1%	-0.504%	-3.54%	-8.61%	-7.55%
CC1(C(=O)NC2CCCCCC2)Cn2nc(C3CC3)cc2C(=O)N1Cc1ccccc1Cl (stereo not drawn)	0.317%	0%	7.21%	2.37%	0.122%
COc1cccc2c1NC(c1ccc(Br)cc1)C1CC=CC21 (stereo not drawn)	-6.06%	-2.06%	-7.44%	-18.5%	-20.8%
CCc1cc2c(cc3n2CC(C)(C(=O)NC2CCC(C)CC2)N(Cc2ccc(F)cc2)C3=O)s1 (stereo not drawn)	5.9%	2.4%	6.61%	3.11%	2.27%
Cc1cccc(CSc2nnc3n(Cc4ccccc4)c(=O)c4ccc(C(=O)NC(C)C)cc4n23)c1	8.46%	3.48%	12.6%	6.84%	8.07%
CCCCN1C(=O)c2ccccc2CC1(C)C(=O)NCc1ccccc1 (stereo not drawn)	11.2%	0%	11.1%	-2.12%	1.48%
CC(C)Cc1noc(CN(C)C(=O)CC2C(=O)NCCN2CC(C)C)n1 (stereo not drawn)	-2.02%	1.8%	-1.3%	2.97%	-0.799%
Cc1ccc(N2C(=O)c3cc4sccc4n3CC2(C)C(=O)NC2CCCCCCC2)cc1 (stereo not drawn)	-1.03%	0.059%	3.16%	1.84%	0.09%
CC(=O)O[C@H]1CC[C@@]2(C)C(CC[C@@H](C)[C@]23Cc2c(O)cc4c(c2O3)CN([C@@H](CCC(=O)O)C(=O)O)C4=O)C1(C)C (stereo partly drawn)	-3.15%	5.37%	-3.88%	-9.66%	3.55%
Cc1cccc(OCCc2noc(C3CCCN3)n2)c1 (stereo not drawn)	-5.11%	-4.02%	-5.76%	-11%	-2.62%
CC(C)CCNC(=O)C1(C)Cn2nc(C(=O)NCCc3ccc(Cl)cc3)cc2C(=O)N1C (stereo not drawn)	-3.34%	0.563%	2.36%	-1.66%	-2.43%
CCOC(=O)c1cc2n(n1)CC(C)(C(=O)NCCC(C)C)N(Cc1ccc(OC(C)C)cc1)C2=O (stereo not drawn)	3.93%	0%	7.9%	10.5%	2.53%
CC(C)(C)CC(C)(C)c1ccc(OCCOCC[N+](C)(C)Cc2ccccc2)cc1	-8.71%	7.12%	-49.7%	-65.7%	-6.47%
C[C@@H](c1ccccc1)N1C(=O)[C@@H]2CN(C(=O)CC3(CC(=O)O)CCCC3)CCN2C1=O	-6.23%	-4.55%	-1.8%	-12.4%	-5.06%
COc1ccc(CCC(=O)c2c(O)cc(O[C@@H]3O[C@H](CO)[C@@H](O)[C@H](O)[C@H]3O[C@@H]3O[C@@H](C)[C@H](O)[C@@H](O)[C@H]3O)cc2O)cc1O	0.78%	8.1%	5.21%	-8.25%	-2.49%
O=C(c1ccco1)N1CCCC1c1nc(C2CCOCC2)no1 (stereo not drawn)	-4.81%	-7.2%	-2.7%	-8.34%	-6.12%

Structure (SMILES)	activity change, negative = inhibition [1]	activity change, negative = inhibition [2]	activity change, negative = inhibition [3]	activity change, negative = inhibition [4]	activity change, negative = inhibition [5]
Cc1cccc(N2CCN(S(=O)(=O)c3cc4c(cc3Br)n(C)c(=O)n4C)CC2)c1C	-4.42%	4.89%	0.341%	0.285%	-1.92%
Nc1nc(NCC2CCC(CNS(=O)(=O)c3cccc4ccccc34)CC2)nc2ccccc12 (stereo not drawn)	-9.8%	-18.2%	-61.9%	-51.8%	-33%
CC(=O)Nc1ccc(Cl)c(C(=O)N(C)Cc2sccc2C)c1	-8.29%	-8.76%	-5.44%	-19.1%	-18.1%
CC1CCN(S(=O)(=O)c2ccc3c(ccn3CC(=O)NC3CCCCC3)c2)CC1	4.9%	5.6%	5.95%	5.46%	4.12%
O=C1C[C@]23C=CCN4CCC5c6cc7c(cc6N1[C@@]5(CC2)C43)OCO7 (stereo partly drawn)	-0.636%	-6.55%	7.75%	-41.5%	-7.95%
CCC(C)NC(=O)c1ccc2c(=O)n(C)c3nn(Cc4cc(C)ccc4C)c(=O)n3c2c1 (stereo not drawn)	3.72%	5.68%	5.77%	-5.43%	0.934%
Cc1cccc(N2C(=O)c3ccccc3CC2(C)C(=O)NCc2ccccc2)c1 (stereo not drawn)	-2.33%	8.24%	-5.3%	-4.87%	-2.69%
O=C1NC(Cc2c[nH]c3ccccc23)C(=O)NC1Cc1c[nH]c2ccccc12 (stereo not drawn)	0%	5.17%	5.83%	-9.92%	6.94%
OC[C@@]1(O)CO[C@@H](OC[C@H]2O[C@@H](Oc3c[nH]c4ccccc34)[C@H](O)[C@@H](O)[C@@H]2O)[C@@H]1O	-2.07%	-19.7%	4.84%	-36.4%	-13.1%
COC(=O)c1cc2n(n1)CC(C)(C(=O)NC1CCCCCC1)N(c1ccc(C(C)C)cc1)C2=O (stereo not drawn)	-3.33%	-0.523%	-3.4%	-2.63%	0.077%
O=C(Cn1ccc2cc(S(=O)(=O)N3CCCCC3)ccc21)NCCc1ccc(Cl)cc1	1.24%	2.38%	2.58%	-7.5%	-1.31%
COc1ccc(C(=O)N[C@@H]2CCC[C@@H]2C(=O)N2CCSCC2)cc1	-0.922%	5.7%	3.43%	-0.939%	14.1%
CCC(C)NC(=O)Cn1nc2n(C3CC3)c(=O)c3ccc(C(=O)NC(C)CC)cc3n2c1=O (stereo not drawn)	9.89%	0%	1.77%	10.4%	11.4%
CN1CCN(c2nc3c(c(=O)[nH]2)CCN(Cc2ccc4[nH]ccc4c2)CC3)CC1	-13.6%	-6.43%	-7.77%	-15.4%	-16.2%
COCCOC1CCN(C(=O)NCc2ccc(C)cc2)CC1	-1.37%	-7.48%	-0.84%	-6.51%	-2.86%
COc1ccc(-c2cc3nccn3c(Nc3ncccc3C(N)=O)n2)cc1OC	-4.5%	-0.496%	7.1%	-19.5%	4.33%
CCOC(=O)c1cc2n(n1)CC(C)(C(=O)NCc1ccccc1)N(Cc1cccc(OC)c1OC)C2=O (stereo not drawn)	-1.32%	3.33%	5.6%	-2.09%	-1.97%
Cc1nn(-c2ccccc2)c2c1C(C1CC1)N(C1CCN([S+](=O)([O-])c3ccccc3)C1)C2=O (stereo not drawn)	-9.53%	-10.6%	-8.26%	-13.4%	-5.12%
Cc1ccc(NC(=O)N2Cc3c(sc4c3CCCC4)-n3cccc3C2c2ccccc2)cc1F (stereo not drawn)	-2.75%	0%	-0.122%	6.05%	5.33%
